The whole screen tested about 43,000 compounds, of which about 200 (0.47%) were called active. Inconclusive results (about 12%) are left out. The call rests on the fitted dose curve; in most records, active means well fitted cell-killing curve with a large enough effect; inconclusive means small, poorly fitted or top-dose-only effect, or effect the other way; inactive means flat fitted curve, though single readings scatter. The list shows a part of the results.
Assay: Cell viability qHTS assay in S16 Pmp22-F2sN cells; further: nearly all actives have a fitted effect of over 65% in size
Settings: S16 Pmp22-F2sN Schwann cells viability, CellTiter-Glo, 24 h; series mostly up to 57.5 µM; activity change, negative = cytotoxicity: at the top concentration
Summary of the method: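 S16 Pmp22-F2sN Schwann cells (500-1,000/well) in phenol-red-free DMEM with 10% FBS received 23 nL compound by pin tool for 24 h at 37 °C. Viability was then read as CellTiter-Glo luminescence after 15 min at room temperature.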
On the % scale 0 is the no-effect control and ±100 the full control effect.

Structure (SMILES) | activity change, negative = cytotoxicity
COc1ccc2c(c1)-c1nc(NC(=O)c3ccc(Cl)cc3)sc1CC2 | inactive: 7.31%
COc1ccc(CNc2ncnc3c2nnn3C)cc1 | inactive: -21.4%
COc1ccccc1CCNc1ncnc2c1nnn2C | inactive: -11.6%
CCCCCOc1ccc(C2c3c(oc4ccccc4c3=O)C(=O)N2c2nc(C)c(C)s2)cc1OCC (configuration not stated) | inactive: -3.27%
Cc1cccc(-n2c3nc(=O)n(C)c(=O)c-3cc3c(Cl)cccc32)c1C | inactive: 1.17%
CC(C)CCNC(=O)CSCc1cnn(-c2ccccc2)c1-n1cccc1 | inactive: 3%
CCc1nc(SCC(=O)Nc2ccc(NC(C)=O)cc2)n[nH]1 | inactive: -3.89%
Cc1ccc(-n2c(=O)c3ccc(C(=O)NCc4ccco4)cc3n(Cc3cccc(Cl)c3)c2=O)cc1 | inactive: -7.69%
CC(C)c1cnc2c(c1SCc1cccc(C(F)(F)F)c1)c(=O)n(C)c(=O)n2C | inactive: 1.2%
COc1ccc(Br)cc1CNC(=O)CN1CCSc2ccccc21 | inactive: -10.2%
O=C(Nc1ccc(Cl)c(Cl)c1)N1CCC(c2ccccc2)C1 (configuration not stated) | inactive: -24.2%
COc1ccc(NC(=O)Cn2c(=O)n(Cc3nc(-c4ccccc4)no3)c(=O)c3cc4c(cc32)OCO4)cc1Cl | inactive: 0.893%
Cc1cccn2c(=O)cc(COc3cccc(NC(=O)c4ccccc4F)c3)nc12 | inactive: 0.383%
COC(=O)c1ccccc1NC(=O)Cc1noc2ccc(C)cc12 | inactive: 1.2%
COc1ccc(OC)c(-c2noc(CSc3nnc(Cc4ccccc4)n3-c3cccc(C)c3)n2)c1 | inactive: -2.11%
Cc1noc2nc(C(=O)O)nc(N3CCCCC3)c12 | inactive: 10.6%
Cn1cc(S(=O)(=O)c2ccccc2)c(=O)c2cc(F)c(N3CCCCC3)cc21 | inactive: 6.19%
COc1cccc(N2CC(NC(=O)COc3ccc4ccccc4c3)CC2=O)c1 (configuration not stated) | inactive: 7.35%
CCc1nnc(SCC(=O)Nc2cc(Cl)c(OC)cc2OC)c2cc3oc(C)cc3n12 | inactive: 12.7%
CC1CCC(NC(=O)Cn2ncc3c4ccccc4n(Cc4ccc(Cl)cc4)c3c2=O)CC1 (configuration not stated) | inactive: -1.07%
CC(=O)c1ccc(NC(=O)CCn2nc(C)c(S(=O)(=O)N3CCC(C)CC3)c2C)cc1 | inactive: 6%
COc1ccc(C)c2sc(N(Cc3cccnc3)C(=O)CCc3ccccc3)nc12 | inactive: -5.12%
COC(=O)c1c(C)sc(-c2c(-c3cccc(OC)c3)[nH]c3c2c(=O)[nH]c(=O)n3C)c1O | inactive: 0.42%
CC(=O)Nc1ccc(S(=O)(=O)NC2(C(F)(F)F)NC(=O)N(c3ccc(Cl)cc3)C2=O)cc1 (configuration not stated) | inactive: 1.98%

Structure (SMILES) | activity change, negative = cytotoxicity
COc1ccc(C(=O)N2CCc3cc(OC)c(OC)cc3C2COc2ccccc2OC)cc1 (configuration not stated) | inactive: -0.0742%
Cc1ccc(C(=O)COC(=O)c2cc(-c3ccc(Cl)cc3)nc3ccccc23)cc1 | inactive: 4.52%
COc1cccc(NC(=O)CSC2=Nc3ccccc3C3=NC(CCC(=O)NCc4ccco4)C(=O)N23)c1 (configuration not stated) | inactive: -2.19%
COc1ccccc1C(=O)Nc1nnc(S(=O)(=O)N2CCCCCC2)s1 | inactive: -6.7%
COc1ccc(-c2nc(CNS(=O)(=O)c3ccc(C)cc3)cs2)cc1 | inactive: 1.99%
CCOc1ccc(CCNc2nc3c(-c4ccc(C)cc4)nnn3c3ccccc23)cc1OCC | inactive: 25.5%
Cc1ccc(-c2ccc(=O)n(CC(=O)Nc3ccc(F)c(Cl)c3)n2)cc1C | inactive: 4.68%
COc1ccc(-c2nc3ccccc3n2Cc2ccc(Cl)cc2)cc1 | inactive: 17.6%
O=C(OCc1cc(=O)n2c3c(sc2n1)CCCC3)c1cccc(NC(=O)c2ccccc2F)c1 | inactive: -25.4%
COc1cc(C)ccc1OCCSc1nnc(-c2ccc(C)cc2)o1 | inactive: 2.68%
Cc1ccc(C(=O)c2oc3ccccc3c2NC(=O)Cc2coc3c(C)c(C)ccc23)cc1 | inactive: -11.4%
O=C(NCc1ccccc1Cl)c1ccc(NC(=O)N2CCCCc3ccccc32)cc1 | inactive: -29.6%
Cc1ccc(S(=O)(=O)c2c(Nc3cccc(Cl)c3)sc(C(=O)c3ccc4c(c3)OCO4)c2N)cc1 | inactive: -8.64%
O=C(NCCS(=O)(=O)N1CCN(c2ccccc2)CC1)C1CC(=O)N(c2ccccc2)C1 (configuration not stated) | inactive: 0.784%
CC1CCCCN1CC(=O)N1CCCc2c1c(=O)oc1ccc(OCc3ccccc3)cc21 (configuration not stated) | inactive: 0.438%
COc1ccccc1C(=O)Nc1ccc(-c2nc3ccccc3s2)c(C)c1 | inactive: 5.99%
Cc1cc(Br)ccc1NC(=O)C1(S(=O)(=O)c2ccc(Cl)cc2)CC1 | inactive: -1.07%
Cc1cccc(NC(=O)CN(C)S(=O)(=O)c2ccc3c(c2)c(=O)n(C)c(=O)n3C)c1 | inactive: 2.06%
CC1CCc2c(sc3nnn(Cc4cccc(C(=O)OC(C)C)c4)c(=O)c23)C1 (configuration not stated) | inactive: 19.8%
CC(=O)N1CCc2c(sc3c2c(=O)n(-c2ccc(F)cc2)c(=O)n3Cc2ccc(C#N)cc2)C1 | inactive: 2.42%
CCCSc1oc(-c2ccco2)nc1S(=O)(=O)c1ccc(Br)cc1 | inactive: 12.1%
Cn1c(-n2cccc2)c(-c2c(-c3ccc(F)cc3)[nH]c3c2c(=O)n(C)c(=O)n3C)c(=O)n(C)c1=O | inactive: -1.81%
COCCCNC(=O)Cn1nc(N2CCN(c3ccccc3)CC2)ccc1=O | inactive: 2.05%

From PubChem BioAssay AID1508642 (National Center for Advancing Translational Sciences (NCATS), 2021)
